Laboratory results from PubChem BioAssay AID652104 (National Center for Advancing Translational Sciences (NCATS), 2013).
About 7,200 (1.8%) of roughly 410,000 compounds were called active. The inconclusive results got no clear call from the source; some entries with a clear call stand among them for comparison. The call rests on the fitted dose curve; in most records, active means well fitted activation curve with a large enough effect; inconclusive means small, poorly fitted or top-dose-only effect, or another doubt; inactive means no such curve, though single readings can be large or run the other way. No potency is given beside an inconclusive call; the fits are too rough.

Assay: qHTS of TDP-43 Inhibitors; further: nearly all actives have a fitted effect of over 50% in size; on growth rescue (activation): % of control where 0% means no effect
Conditions: TDP-43 expressing yeast growth rescue, BacTiter-Glo, 24 h; growth rescue (activation): at 46.1 µM (top of the series) unless noted
How it was run: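 In this qHTS, compounds that restore growth of yeast expressing TDP-43 appear as activators. Cells (OD600=0.02, galactose medium, raffinose-pregrown) are incubated with compound 24 hr at 30 deg C and growth is quantified by BacTiter-Glo.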
Potency means the concentration at half of the fitted maximal effect; tags describe the fitted curve by direction and shape.

Which Potency does the source give for `c1ccc(-c2ccc(OCCOCCn3cncn3)cc2)cc1` here?
Its Potency is active: 14.1 µM.

For `CNC(=O)c1[nH]nc2c1CCc1ccccc1-2`, which Potency is on record?
Its Potency is “inactive”.

With `CC(=O)Oc1ccc2c(C)cc(=O)oc2c1C(=O)c1ccccc1` as the compound, how does the Potency read?
Its Potency is inconclusive [activator, single point].

Which Potency does the source give for `CCO/C=C1/C(=O)N(c2ccccc2OC)C(=O)c2ccccc21` here?
Its Potency is “inactive”.

Which Potency does the source give for `Cc1cccc(C(=O)N2CCC(=O)N([C@H](COCc3ccc(Cl)cc3)Cc3ccccc3)CC2)c1` here?
Its Potency is active: 15.8 µM.

For `O=C1C=C(c2cccc(CO)c2)C[C@@H](c2ccc(Cl)cc2)C1`, which Potency is on record?
Its Potency is active: 17.8 µM.

For `Cc1nc(CNC(=O)C2CCC(=O)N(CCc3ccc(Cl)cc3)C2)sc1C` (configuration not stated), which Potency is on record?
The Potency was inconclusive [activator, partial curve].

With `O=C(OCC(=O)c1ccc[nH]1)c1ccc(C(F)(F)F)cc1` as the compound, how does the Potency read?
The Potency was inconclusive [activator, single point].

With `O=C(NCc1ccccc1Cl)c1cccc(OC2CCN(C(=O)C3CC3)CC2)c1` as the compound, how does the Potency read?
Its Potency is inconclusive [activator, partial curve].

Which Potency does the source give for `CCCNC(=O)C1CCC(Cn2c(=O)c3sccc3n(CC(=O)NCc3cccc(OC)c3OC)c2=O)CC1` (configuration not stated) here?
The Potency was “inactive”.

For `COc1ccc(CCNc2ncnc3sccc23)cc1OC`, which Potency is on record?
Its Potency is inconclusive [activator, single point].

Which growth rescue (activation) does the source give for `O=C(Nc1nnc(-c2ccco2)o1)c1ccc([N+](=O)[O-])s1` here?
Its growth rescue (activation) is inconclusive: -91.1% [activator].

For `Cc1[nH]c2ccccc2c1C(=O)CSc1ccccc1`, which Potency is on record?
Its Potency is inconclusive [activator, partial curve].

With `S=C(NCc1ccccc1)Nc1cccc(Cl)c1` as the compound, how does the Potency read?
Its Potency is active: 28.2 µM.

For `O=C(NNc1nc2ccc(F)cc2s1)c1cccc(F)c1`, which Potency is on record?
The Potency was active: 12.6 µM.

With `CN(C)C(=O)c1cc2cc(Br)ccc2s1` as the compound, how does the Potency read?
Its Potency is inconclusive [activator, partial curve].

For `Cc1nc(-c2ccc(Cl)cc2)sc1C(=O)NN`, which Potency is on record?
Its Potency is inconclusive [activator, single point].

For `CCCCNC(=O)C(=O)Nc1cc2c3c(c1)CCC(=O)N3CCC2`, which Potency is on record?
Its Potency is inconclusive [activator, partial curve].

Which Potency does the source give for `O=S(=O)(c1ccccc1)c1cnc(-c2ccccc2)nc1N1CCCC1` here?
The Potency was inconclusive [activator, partial curve].

With `COc1ccc(/C=N/Nc2nc(Nc3ccccc3)nc(N3CCCCC3)n2)cc1OC` as the compound, how does the Potency read?
Its Potency is inconclusive [activator, full curve].

Which Potency does the source give for `CC(=O)N1CCN(CC(=O)Nc2ccccc2Sc2ccc(Cl)cc2)CC1` here?
Its Potency is “inactive”.

With `COc1cc(C(=O)N/N=C/c2sc(=O)n(-c3ccccc3)c2Cl)cc(OC)c1OC` as the compound, how does the Potency read?
The Potency was inconclusive [activator, partial curve, poor fit].

Which Potency does the source give for `COc1cc(CN2CCN(Cc3ccc([N+](=O)[O-])cc3)CC2)c([N+](=O)[O-])cc1OC` here?
The Potency was inconclusive [activator, single point].

For `O=C1CC(N2CCC(O)(c3ccc(Br)cc3)CC2)C(=O)N1c1ccc(Cl)cc1` (configuration not stated), which Potency is on record?
Its Potency is “inactive”.

For `CSc1ncc(C(=O)NCc2ccc(C)cc2)c(C)n1`, which Potency is on record?
Its Potency is inconclusive [activator, single point].

Which Potency does the source give for `COc1cccc(NC(=O)C2(C)CCN2C(=O)CCC2CCCC2)c1` (configuration not stated) here?
Its Potency is inconclusive [activator, partial curve].

For `Cc1cc2nc[nH]c(=O)n2n1`, which Potency is on record?
Its Potency is “inactive”.

For `Cc1nc2ccc(C(=O)NCCCn3ccnc3)cn2c1N(C)C(=O)CCc1ccccc1`, which Potency is on record?
Its Potency is inconclusive [activator, partial curve, poor fit].

For `COc1cccc(OCC(=O)O/N=C(\N)c2ccncc2)c1`, which Potency is on record?
Its Potency is inconclusive [activator, single point].

With `O=C(Nc1nc2ccc(F)cc2s1)c1nc(S(=O)(=O)Cc2ccccc2F)ncc1Cl` as the compound, how does the Potency read?
The Potency was inconclusive [activator, full curve].

With `CC(=O)Nc1cccc(NC(=O)Cc2cccs2)c1` as the compound, how does the Potency read?
Its Potency is “inactive”.

Which growth rescue (activation) does the source give for `Cc1[nH]c(-c2ccc(F)cc2)cc1C(=O)N1CCN(c2cccc(Cl)c2)CC1` here?
Its growth rescue (activation) is inconclusive: 130% [activator].

With `C=CCn1c(SCC(=O)Nc2cc3oc4ccccc4c3cc2OC)nnc1-c1cnccn1` as the compound, how does the Potency read?
Its Potency is “inactive”.

Which Potency does the source give for `Cc1ccc(Cl)cc1N1CCN(C(=O)CSc2cc(=O)n(C)c3ccccc23)CC1` here?
Its Potency is inconclusive [activator, partial curve].

For `Cc1cccc(CC(=O)Nc2ccc3nc(N4CCC(C)CC4)cc(C)c3c2)c1`, which Potency is on record?
Its Potency is “inactive”.

For `Nc1ncnc(Sc2ccc(Cl)cc2)c1[N+](=O)[O-]`, which Potency is on record?
Its Potency is inconclusive [activator, partial curve].

With `CCCCCCCCN1C(=O)[C@H](CC(=O)NCCCCc2ccccc2)C[C@@]2(C(=O)OCC)CCCC=C12` as the compound, how does the Potency read?
The Potency was “inactive”.

With `CCOc1ccc(S(=O)(=O)NCCc2c(C)[nH]c3c(Cl)cccc23)cc1C` as the compound, how does the Potency read?
The Potency was inconclusive [activator, single point].

Which Potency does the source give for `Cc1onc(-c2ccccc2Cl)c1C(=O)OCc1cnc(Cl)s1` here?
The Potency was inconclusive [activator, partial curve].

Which Potency does the source give for `Cc1ccc(-c2csc3ncnc(SCC(=O)NCC4CCCO4)c23)cc1` (configuration not stated) here?
Its Potency is inconclusive [activator, partial curve].

For `FC(F)(F)c1cc(-c2ccccc2)nc(-n2cc(Cl)cn2)n1`, which Potency is on record?
Its Potency is inconclusive [activator, partial curve].

For `CC(=O)N1CCN(C(=O)OC2CC3CC2[C@H]2CCCCN2C3=O)CC1` (some centres not stated), which Potency is on record?
Its Potency is “inactive”.

Which Potency does the source give for `c1ccc(-n2cnc3ccccc32)cc1` here?
Its Potency is “inactive”.

For `O=C(c1ccc(F)cc1)N1CCC(c2nc3ccccc3s2)CC1`, which Potency is on record?
Its Potency is inconclusive [activator, partial curve].

With `Clc1cccc(Cc2c(C3CCCCC3)nc3ccc(Cl)cn23)c1` as the compound, how does the Potency read?
Its Potency is inconclusive [activator, single point].

Which Potency does the source give for `Cc1noc(C)c1CN1C(=O)c2ccc([N+](=O)[O-])cc2C1=O` here?
Its Potency is inconclusive [activator, partial curve].

With `O=C(Nc1ccccc1)c1cc2n(n1)C(C(F)(F)F)CC(C1CC1)N2` (configuration not stated) as the compound, how does the Potency read?
Its Potency is inconclusive [activator, partial curve].

For `CC(C)N(C(=O)Cn1cc(S(=O)(=O)Cc2ccc(Br)cc2)c2ccccc21)C(C)C`, which Potency is on record?
Its Potency is “inactive”.

For `CCCCc1ccc(NC(=O)N[C@@H](C)C(=O)O)cc1`, which Potency is on record?
The Potency was “inactive”.

For `COc1ccc(CCc2nnc(CCC(=O)NCc3cnc4ccccn34)o2)cc1`, which Potency is on record?
Its Potency is inconclusive [activator, partial curve].

For `CCc1ccc(C(=O)COc2ccc(NC(C)=O)cc2)cc1`, which Potency is on record?
Its Potency is inconclusive [activator, single point].

For `Cc1ccc2c(CC(=O)N3CCN(S(=O)(=O)c4ccc5c(c4)OCCO5)CC3)coc2c1`, which Potency is on record?
Its Potency is inconclusive [activator, single point].

For `CCOc1c(Cl)cnn(-c2ccc(C)cc2)c1=O`, which Potency is on record?
The Potency was inconclusive [activator, single point].

Which Potency does the source give for `Cc1cc(Cl)ccc1NC(=S)NCc1ccc(F)cc1` here?
The Potency was active: 17.8 µM.

For `CCc1nc(-c2ccc(-c3ccc(OC)cc3)nc2OC)no1`, which Potency is on record?
Its Potency is inconclusive [activator, partial curve].

Which Potency does the source give for `CC(C)Oc1ccc(CNC(=O)c2ccc3c(c2)N(C)CCS3)cc1` here?
The Potency was inconclusive [activator, partial curve].

With `Cc1ccc2ccc(S(=O)(=O)NCc3ccco3)cc2c1` as the compound, how does the Potency read?
Its Potency is inconclusive [activator, partial curve].

For `COc1cc(NC(=O)C(=O)NNC(=O)C2CCCCC2)c(OC)cc1Cl`, which Potency is on record?
Its Potency is inconclusive [activator, single point].

With `O=C(N/N=C/C(Br)=C/c1ccccc1)C1CC1` as the compound, how does the Potency read?
The Potency was active: 22.4 µM.

With `OCc1ccccc1-c1cnc2sc(NCc3ccc(F)cc3)nn12` as the compound, how does the Potency read?
The Potency was inconclusive [activator, partial curve].

With `CCN(C(=S)NCc1ccccc1)c1cccc2ccccc12` as the compound, how does the Potency read?
The Potency was inconclusive [activator, partial curve].

Which Potency does the source give for `COc1ccc(-c2noc(-c3ccc(N4CCN(c5ccccc5OC)CC4)c([N+](=O)[O-])c3)n2)cc1` here?
The Potency was inconclusive [activator, full curve, poor fit].

Which Potency does the source give for `CCN(C(=O)CSc1ccc2ccccc2n1)C1CCCCC1` here?
Its Potency is active: 22.4 µM.

For `O=C(NC(=S)NCCC1=CCCCC1)c1ccc(Br)o1`, which Potency is on record?
Its Potency is inconclusive [activator, single point].

Which Potency does the source give for `O=C(CSc1nc(=O)n(Cc2ccncc2)c2c1CCC2)Nc1ccc(F)cc1F` here?
The Potency was “inactive”.

For `CCOC(=O)CN1C(c2ccc(O)cc2)Nc2ccc(Br)cc2C1c1ccccc1` (configuration not stated), which Potency is on record?
The Potency was active: 20 µM.

For `Cc1ccc(C(=O)ON=C2CCN(c3ccc([N+](=O)[O-])cc3)CC2)cc1`, which Potency is on record?
The Potency was inconclusive [activator, full curve].

For `O=C1c2ccccc2C(Nc2ccc(F)c(Cl)c2)N1Cc1ccco1` (configuration not stated), which Potency is on record?
The Potency was inconclusive [activator, single point].

With `O=C(Nc1ccccc1C(=O)O)c1ccc(N2C(=O)C3CC=CCC3C2=O)cc1` (configuration not stated) as the compound, how does the Potency read?
The Potency was “inactive”.

Which Potency does the source give for `COc1ccc(NC(=O)CCSc2ccc3ccccc3n2)cc1` here?
The Potency was “inactive”.

With `O=[N+]([O-])/C=C/c1cn(Cc2ccc(F)cc2)c2ccccc12` as the compound, how does the Potency read?
Its Potency is active: 12.6 µM.

With `CCS(=O)(=O)c1oc(-c2ccc(F)cc2)nc1S(=O)(=O)c1ccccc1` as the compound, how does the Potency read?
The Potency was inconclusive [activator, full curve].
